# Laboratory results reported in PubChem BioAssay AID1768 (National Center for Advancing Translational Sciences (NCATS), 2009).
# Several values for one entry are separate records, joined by “and”; a condition that tells them apart may be missing. Equal values may be shown once. Screen size: about 270,000 compounds; about 620 (0.23%) were called active. The shares of active, inactive and inconclusive entries below differ from those in the screen. The call rests on the fitted dose curve; in most records, active means well fitted inhibition curve with a large enough effect in the polarisation, with a control signal flat (not every such curve was filed as active); inconclusive means small, poorly fitted or top-dose-only effect, or effect the other way, or a change in a side signal; inactive means no such curve, though single readings can be large or run the other way; the % refers to the polarisation. Potencies beside an inconclusive call are fits to weak or partial responses and may not hold up. “Side channel” marks fits to a control or component signal instead of the main read-out.
# Target: Menin (Homo sapiens) (UniProt O00255)
# UniProt O00255, sequence (O00255 whole entry, looked up): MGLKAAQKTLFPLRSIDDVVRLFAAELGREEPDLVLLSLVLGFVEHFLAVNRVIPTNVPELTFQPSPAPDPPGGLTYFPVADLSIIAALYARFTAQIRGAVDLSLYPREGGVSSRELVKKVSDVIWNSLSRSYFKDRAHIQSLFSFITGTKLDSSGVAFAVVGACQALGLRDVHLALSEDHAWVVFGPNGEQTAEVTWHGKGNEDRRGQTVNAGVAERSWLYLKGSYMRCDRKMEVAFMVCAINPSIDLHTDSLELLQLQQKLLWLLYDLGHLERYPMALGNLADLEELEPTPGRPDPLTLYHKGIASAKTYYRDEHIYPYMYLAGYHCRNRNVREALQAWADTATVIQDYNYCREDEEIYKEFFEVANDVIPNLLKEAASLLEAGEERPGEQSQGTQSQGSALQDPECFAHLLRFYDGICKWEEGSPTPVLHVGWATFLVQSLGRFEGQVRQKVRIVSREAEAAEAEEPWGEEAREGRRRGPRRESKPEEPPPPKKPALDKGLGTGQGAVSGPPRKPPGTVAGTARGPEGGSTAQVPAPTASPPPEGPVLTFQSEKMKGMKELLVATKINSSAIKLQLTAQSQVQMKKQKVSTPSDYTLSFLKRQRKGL
# Test: qHTS Assay for Inhibitors Targeting the Menin-MLL Interaction in MLL Related Leukemias: Competition With Texas Red Labeled MLL-derived Mutant Peptide; on FP activity change, negative = inhibition: % of control where 0% means no effect
# Conditions: fluorescence polarization; FP activity change, negative = inhibition: at 61.6 µM (top of the series)
# Potency means the concentration at half of the fitted maximal effect; tags describe the fitted curve by direction and shape or compound fluorescence and quenching.
Structure (SMILES),Potency,"FP activity change, negative = inhibition"
C=CCSc1nnc2c(n1)OC(c1c(C)[nH]n(-c3ccccc3)c1=O)Nc1ccccc1-2 (centres undefined),"inconclusive: 31.6 µM [quencher, side channel, single point]",
COCC(C)NC(=O)c1ccc(CN2CCc3ccccc3C2)cc1 (centres undefined),"inconclusive: 39.8 µM [inhibitor, partial curve]",
CCC1=Nc2ccccc2NC2=C1C(=O)CCC2,"inconclusive: 20 µM [inhibitor, partial curve, poor fit]",
Cc1ccc(C)c(NC(=O)CSc2ccc(-c3ccco3)nn2)c1,"inconclusive: 25.1 µM [quencher, side channel, single point]",
COc1ccc(CNS(=O)(=O)c2cc(-c3cc(C)no3)ccc2C(C)C)cc1,"inconclusive: 39.8 µM [quencher, side channel, single point]",
O=C(CSc1ccc(-c2ccc(Cl)cc2)nn1)NC1CCCC1,"inconclusive: 28.2 µM [fluorescent, side channel, single point]",
COC(=O)c1cc(S(=O)(=O)N2CCCCC2C)c[nH]1 (centres undefined),"inconclusive: 22.4 µM [quencher, side channel, single point]",
CN(C)C(=O)CCSC(SCCC(=O)O)c1cccc(/C=C/c2ccc3ccc(Cl)cc3n2)c1 (centres undefined),,inactive: 40.4%
CN1CCC(Oc2ccccc2Sc2ccccc2)CC1,,inactive: -1.01%
C/C(=N\Nc1nc(-c2cc(C)ccc2C)cs1)c1cc2ccccc2oc1=O,"inconclusive: 28.2 µM [quencher, side channel, partial curve]",
Cc1ccc(C(=O)NN2CC(O)=C(c3nc(-c4cccc([N+](=O)[O-])c4)cs3)C2=N)cc1,"inconclusive: 11.2 µM [quencher, side channel, partial curve]",
Cc1ccc(S(=O)(=O)N(CCCN2CCCC2=O)Cc2cc3c(C)ccc(C)c3[nH]c2=O)cc1,"inconclusive: 25.1 µM [inhibitor, partial curve]",
Cc1ccc(-c2cc(C(=O)Nc3ccc(S(=O)(=O)Nc4cc(C)on4)cc3)c3ccccc3n2)c(C)c1,"inconclusive: 8.91 µM [quencher, side channel, full curve]",
NC(N)=N/N=C/c1ccc(OCc2ccccc2Cl)cc1,"inconclusive: 15.8 µM [fluorescent, side channel, single point]",
COc1cc(CNc2ccc(N3CCOCC3)cc2)cc(Br)c1OC,,inactive: -9.22%
COc1ccc(-c2coc3c(OC)c(OC)cc(OC)c3c2=O)cc1,"inconclusive: 8.91 µM [inhibitor, partial curve]",
Cc1ccc(NC(=O)Nc2cccnc2)cc1Cl,"inconclusive: 17.8 µM [quencher, side channel, partial curve]",
COc1cccc(C2=NN(C(=O)c3ccc(C)o3)C(O)(C(F)(F)F)C2)c1 (centres undefined),"inconclusive: 39.8 µM [inhibitor, single point]",
CC1=Nc2ccccc2/C1=C\c1nc(-c2ccccc2)oc1O,"inconclusive: 10 µM [quencher, side channel, partial curve]",
Cc1cccc(C(=O)OCC(=O)NCCCc2ccccc2)c1O,"inconclusive: 20 µM [fluorescent, side channel, partial curve]",

Structure (SMILES),Potency,"FP activity change, negative = inhibition"
CC(=O)Nc1ccc(S(=O)(=O)N2CCc3nc(COc4ccccc4)c4c(c3C2)CO[C@@H](C)C4)cc1,,inactive: 2.96% [at 11.7 µM]
CC1=NN(c2ccccc2)C(=O)/C1=C/C=C/c1ccc(N(C)C)cc1,"inconclusive: 5.62 µM [quencher, side channel, partial curve]",
CCCCCCOc1ccccc1C(N)=O,"inconclusive: 22.4 µM [fluorescent, side channel, partial curve]",
CC(=O)NCCC(=O)Nc1nc2c(ccc3ccccc32)s1,"inconclusive: 35.5 µM [fluorescent, side channel, single point]",
O=C(O)c1ccc(CSc2nnc(-c3ccccc3Br)o2)cc1,,inactive: 11.6%
COC(=O)c1sc2ccccc2c1-n1cccc1C(=O)C(=O)Nc1ccccc1,"inconclusive: 35.5 µM [inhibitor, single point]",
COCC(C)Nc1ncnc2c1cnn2-c1ccc(Cl)cc1 (centres undefined),,inactive: 30.3%
CCOC(=O)N1CCC(N(CCOC)C(=O)Nc2ccc(Cl)c(Cl)c2)CC1,"inconclusive: 3.55 µM [inhibitor, partial curve]",
COc1ccc(C)cc1NC(=O)c1ccccc1NS(=O)(=O)c1ccc(Cl)s1,"inconclusive: 11.2 µM [quencher, side channel, partial curve]",
O=C(NC(=S)Nc1ccc(F)c([N+](=O)[O-])c1)c1ccccc1F,"inconclusive: 31.6 µM [quencher, side channel, single point]",
CNc1nc(N/N=C/c2ccc([N+](=O)[O-])cc2)nc(Nc2ccccc2)n1,"inconclusive: 15.8 µM [quencher, side channel, partial curve]",
CC(C)Cc1nc2oc3c(Cl)ncnc3c2c2c1CCC2,"inconclusive: 17.8 µM [inhibitor, single point]",
CC(=O)Nc1ccc(S(=O)(=O)n2nc(-c3ccc(C)cc3)nc2N)cc1,"inconclusive: 39.8 µM [fluorescent, single point]",
CCOC(=O)C1(Cc2ccccc2)CCN(Cc2cn[nH]c2-c2ccccc2)CC1,"inconclusive: 10 µM [fluorescent, side channel, partial curve]",
CC(=O)Nc1ccc(S(=O)(=O)Nc2nc3ccccc3nc2N2CCCCCC2)cc1,"inconclusive: 31.6 µM [quencher, side channel, single point]",
COC(=O)C(Cc1c[nH]c2ccccc12)NC(=O)c1cc(-c2ccc(OC)c(OC)c2)oc1C (centres undefined),"inconclusive: 10 µM [quencher, side channel, partial curve]",
COc1cc(CNc2cccc(C(=O)O)c2)cc(Br)c1OCC(=O)NC(C)(C)C,,inactive: -13.2%
Cc1cccc(N2CCC(N3CCN(C4CCCCC4)C(CCO)C3)CC2)c1C (centres undefined),"inconclusive: 12.6 µM [quencher, side channel, partial curve]",
CCOC(=O)c1c(NC(=S)NC(=O)c2ccco2)sc2c1CCCC2,"inconclusive: 25.1 µM [quencher, side channel, single point]",
CCn1c(C(C)NC(=O)c2cccs2)nc2ccccc21 (centres undefined),,inactive: 9.81%

Structure (SMILES),Potency,"FP activity change, negative = inhibition"
COc1ccc(-c2cc(=O)c3cc(F)ccc3[nH]2)cc1,"inactive and inconclusive: 63.1 µM [inhibitor, single point]",
Cc1cccc(N2CCN(C(=S)Nc3ccc4nc(N5CCOCC5)cc(C)c4c3)CC2C)c1 (centres undefined),,inactive: -6.25%
CCN1CCc2c(OCc3ccc(C)cc3)cccc2C1=O,"inconclusive: 14.1 µM [fluorescent, side channel, partial curve]",
COc1ccc(Br)cc1CN1CCN(C(=O)c2cccc(F)c2)CC1,"inconclusive: 2.82 µM [fluorescent, side channel, partial curve]",
O=C(O)c1cccc(NC(=S)N/N=C/c2c[nH]c3ccccc23)c1,"inconclusive: 20 µM [quencher, side channel, partial curve]",
NC[C@H](O)c1ccc(O)c(O)c1,"inconclusive: 28.2 µM [quencher, side channel, single point]",
CCN1CCN(c2cc(N3CCN(C(=O)c4ccco4)CC3)c3c4c(onc24)-c2ccccc2C3=O)CC1,"inconclusive: 28.2 µM [fluorescent, side channel, partial curve]",
O=C(Nc1nc(-c2nc3ccccc3s2)cs1)C1COc2ccccc2O1 (centres undefined),"inconclusive: 39.8 µM [inhibitor, single point]",
Fc1cccc(CSc2ccc(-c3ccc4c(c3)OCO4)nn2)c1,"inconclusive: 39.8 µM [inhibitor, single point]",
N#CCSc1n[nH]c2nc3c(c(=O)n12)C1(CCCC1)Cc1ccccc1-3,"inconclusive: 17.8 µM [quencher, side channel, single point]",
COC(=O)c1ccc(NC(=O)CSc2nc3ccccc3c(=O)[nH]2)cc1,"inconclusive: 39.8 µM [inhibitor, single point]",
Clc1ccccc1-c1nnn(Cc2ccc(-c3nn[nH]n3)cc2)n1,"inconclusive: 20 µM [quencher, side channel, single point]",
Cc1ccc(-c2noc(CSc3nnc(Cc4ccccc4)n3-c3ccc(Cl)cc3)n2)cc1,"inconclusive: 5.62 µM [fluorescent, side channel, partial curve]",
COc1cc(C(=O)OC2CC3CCC2(C)C3(C)C)ccc1OC(C)=O (centres undefined),"inconclusive: 8.91 µM [fluorescent, side channel, full curve, poor fit]",
CCN1/C(=C/c2ccc3ccccc3[n+]2CCCS(=O)(=O)[O-])C=Cc2cc(C)ccc21,"inconclusive: 25.1 µM [fluorescent, side channel, partial curve]",
COC(=O)N/N=C/c1cc([N+](=O)[O-])cc(Br)c1O,,inactive: 8.79%
Cc1ccc(C)c(Oc2nnnn2-c2ccccc2)c1,,inactive: -9.61%
c1ccc(Nc2nc(-c3ccccc3)ns2)cc1,"inconclusive: 39.8 µM [fluorescent, single point]",
COc1ccc(CN2CCN(Cc3cccc(Oc4ccccc4)c3)CC2)c(OC)c1OC,"inconclusive: 3.98 µM [fluorescent, side channel, full curve]",
